Measurements published in the supplement of paper PMC8728848.
This is one part of the list.

Key:
Experiment in all cases: glycan array binding signal (z-score within array); higher = stronger binding
Conditions in all cases: glycan notation: IUPAC condensed, linker removed
[1] = target: GalNAc(b1-4)GlcNAc(b1-2)Man(a1-3)[GalNAc(b1-4)GlcNAc(b1-2)Man(a1-6)]Man(b1-4)GlcNAc(b1-4)GlcNAc
How it was run: (§1)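 The binding signal is a Z-score computed within each array. Data were drawn from 3228 arrays in the Consortium for Functional Glycomics database, restricted to those with a known protein sequence. Scores were averaged over arrays of the same protein sequence at different concentrations or buffers, and over linkers, and negative values can be taken as non-binding.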

[2] = target: GalNAc(b1-4)GlcNAc(b1-3)GalNAc(b1-4)GlcNAc
How it was run: as §1

GalNAc(b1-4)GlcNAc6S = target: GalNAc(b1-4)GlcNAc6S
How it was run: as §1

GalNAc(b1-6)GalNAc = target: GalNAc(b1-6)GalNAc
How it was run: as §1

GalNAc3S(b1-4)GlcNAc = target: GalNAc3S(b1-4)GlcNAc
How it was run: as §1

GalNAc3S(b1-4)GlcNAc3S = target: GalNAc3S(b1-4)GlcNAc3S
How it was run: as §1

[3] = target: GalNAc3S(b1-4)[Fuc(a1-3)]GlcNAc
How it was run: as §1

GalNAc4S6S(b1-4)GlcNAc = target: GalNAc4S6S(b1-4)GlcNAc
How it was run: as §1

GalNAc6S(b1-4)GlcNAc = target: GalNAc6S(b1-4)GlcNAc
How it was run: as §1

Glc(a1-4)Glc = target: Glc(a1-4)Glc
How it was run: as §1

[4] = target: Glc(a1-4)Glc(a1-4)Glc(a1-4)Glc
How it was run: as §1

Glc(a1-6)Glc(a1-6)Glc = target: Glc(a1-6)Glc(a1-6)Glc
How it was run: as §1

[5] = target: Glc(a1-6)Glc(a1-6)Glc(a1-6)Glc
How it was run: as §1

Glc(b1-4)Glc = target: Glc(b1-4)Glc
How it was run: as §1

Glc(b1-6)Glc = target: Glc(b1-6)Glc
How it was run: as §1

GlcA(b1-3)Gal = target: GlcA(b1-3)Gal
How it was run: as §1

GlcA(b1-3)GlcNAc = target: GlcA(b1-3)GlcNAc
How it was run: as §1

GlcA(b1-6)Gal = target: GlcA(b1-6)Gal
How it was run: as §1

[6] = target: GlcA3S(b1-3)Gal(b1-4)GlcNAc(b1-2)Man
How it was run: as §1

[7] = target: GlcA3S(b1-3)Gal(b1-4)GlcNAc(b1-3)Gal(b1-4)Glc
How it was run: as §1

[8] = target: GlcNAc(a1-3)Gal(b1-4)GlcNAc
How it was run: as §1

[9] = target: GlcNAc(a1-4)Gal(b1-3)GlcNAc
How it was run: as §1

[10] = target: GlcNAc(a1-4)Gal(b1-4)GalNAc
How it was run: as §1

[11] = target: GlcNAc(a1-4)Gal(b1-4)GlcNAc
How it was run: as §1

[12] = target: GlcNAc(a1-4)Gal(b1-4)GlcNAc(b1-3)Gal(b1-4)Glc
How it was run: as §1

[13] = target: GlcNAc(a1-4)Gal(b1-4)GlcNAc(b1-3)Gal(b1-4)GlcNAc
How it was run: as §1

[14] = target: GlcNAc(a1-4)Gal(b1-4)GlcNAc(b1-3)Gal(b1-4)GlcNAc(b1-3)Gal(b1-4)GlcNAc
How it was run: as §1

[15] = target: GlcNAc(a1-4)Gal(b1-4)GlcNAc(b1-3)Gal(b1-4)[Fuc(a1-3)]GlcNAc(b1-3)Gal(b1-4)[Fuc(a1-3)]GlcNAc
How it was run: as §1

[16] = target: GlcNAc(a1-6)Gal(b1-4)GlcNAc
How it was run: as §1

[17] = target: GlcNAc(b1-2)Gal(b1-3)GalNAc
How it was run: as §1

[18] = target: GlcNAc(b1-2)Gal(b1-3)GlcNAc
How it was run: as §1

[19] = target: GlcNAc(b1-2)Man(a1-3)[GlcNAc(b1-2)Man(a1-6)]Man(b1-4)GlcNAc(b1-4)GlcNAc
How it was run: as §1

[20] = target: GlcNAc(b1-2)Man(a1-3)[GlcNAc(b1-2)Man(a1-6)]Man(b1-4)GlcNAc(b1-4)[Fuc(a1-6)]GlcNAc
How it was run: as §1

[21] = target: GlcNAc(b1-2)Man(a1-3)[GlcNAc(b1-4)][GlcNAc(b1-2)Man(a1-6)]Man(b1-4)GlcNAc(b1-4)GlcNAc
How it was run: as §1

[22] = target: GlcNAc(b1-2)Man(a1-3)[GlcNAc(b1-4)][GlcNAc(b1-2)Man(a1-6)]Man(b1-4)GlcNAc(b1-4)[Fuc(a1-6)]GlcNAc
How it was run: as §1

[23] = target: GlcNAc(b1-2)[GlcNAc(b1-4)]Man(a1-3)[GlcNAc(b1-2)Man(a1-6)]Man(b1-4)GlcNAc(b1-4)GlcNAc
How it was run: as §1

[24] = target: GlcNAc(b1-2)[GlcNAc(b1-4)]Man(a1-3)[GlcNAc(b1-4)][GlcNAc(b1-2)Man(a1-6)]Man(b1-4)GlcNAc(b1-4)GlcNAc
How it was run: as §1

[25] = target: GlcNAc(b1-2)[GlcNAc(b1-4)]Man(a1-3)[GlcNAc(b1-4)][GlcNAc(b1-2)[GlcNAc(b1-6)]Man(a1-6)]Man(b1-4)GlcNAc(b1-4)GlcNAc
How it was run: as §1

[26] = target: GlcNAc(b1-2)[GlcNAc(b1-4)]Man(a1-3)[GlcNAc(b1-4)][GlcNAc(b1-2)[GlcNAc(b1-6)]Man(a1-6)]Man(b1-4)GlcNAc(b1-4)[Fuc(a1-6)]GlcNAc
How it was run: as §1

[27] = target: GlcNAc(b1-2)[GlcNAc(b1-6)]Man(a1-6)[GlcNAc(b1-2)Man(a1-3)]Man(b1-4)GlcNAc(b1-4)GlcNAc
How it was run: as §1

[28] = target: GlcNAc(b1-2)[GlcNAc(b1-6)]Man(a1-6)[GlcNAc(b1-2)Man(a1-3)]Man(b1-4)GlcNAc(b1-4)[Fuc(a1-6)]GlcNAc
How it was run: as §1

[29] = target: GlcNAc(b1-2)[GlcNAc(b1-6)]Man(a1-6)[GlcNAc(b1-4)][GlcNAc(b1-2)Man(a1-3)]Man(b1-4)GlcNAc(b1-4)GlcNAc
How it was run: as §1

GlcNAc(b1-3)Fuc = target: GlcNAc(b1-3)Fuc
How it was run: as §1

GlcNAc(b1-3)Gal = target: GlcNAc(b1-3)Gal
How it was run: as §1

[30] = target: GlcNAc(b1-3)Gal(b1-3)GalNAc
How it was run: as §1

B1: EEA (Euonymus europaeus) (protein)
chain: MASTIIATGPTYRVYCRAAPNYNMIVGKGVAFLAPIDETNELQYWYKDDTYSYIKDEAGLPAFSLVNKATGLTLKHSNHHPVPVKLVTYNPNVVDESVLWSQADDRGDGYSAIRSLTNPASHLEAAPLNDWSYNGAIIMGGVWIDAYNQQWKIEPHTG
- glycan array binding signal (z-score) [1]: 0.509
- glycan array binding signal (z-score) [2]: -0.269
- glycan array binding signal (z-score) (GalNAc(b1-4)GlcNAc6S): -0.177
- glycan array binding signal (z-score) (GalNAc(b1-6)GalNAc): -0.239
- glycan array binding signal (z-score) (GalNAc3S(b1-4)GlcNAc): -0.18
- glycan array binding signal (z-score) (GalNAc3S(b1-4)GlcNAc3S): -0.156
- glycan array binding signal (z-score) [3]: -0.1
- glycan array binding signal (z-score) (GalNAc4S6S(b1-4)GlcNAc): -0.234
- glycan array binding signal (z-score) (GalNAc6S(b1-4)GlcNAc): -0.213
- glycan array binding signal (z-score) (Glc(a1-4)Glc): -0.178
- glycan array binding signal (z-score) [4]: -0.168
- glycan array binding signal (z-score) (Glc(a1-6)Glc(a1-6)Glc): -0.214
- glycan array binding signal (z-score) [5]: -0.092
- glycan array binding signal (z-score) (Glc(b1-4)Glc): -0.234
- glycan array binding signal (z-score) (Glc(b1-6)Glc): -0.165
- glycan array binding signal (z-score) (GlcA(b1-3)Gal): -0.19
- glycan array binding signal (z-score) (GlcA(b1-3)GlcNAc): -0.185
- glycan array binding signal (z-score) (GlcA(b1-6)Gal): -0.277
- glycan array binding signal (z-score) [6]: -0.194
- glycan array binding signal (z-score) [7]: -0.179
- glycan array binding signal (z-score) [8]: -0.151
- glycan array binding signal (z-score) [9]: -0.169
- glycan array binding signal (z-score) [10]: -0.127
- glycan array binding signal (z-score) [11]: -0.158
- glycan array binding signal (z-score) [12]: -0.238
- glycan array binding signal (z-score) [13]: -0.197
- glycan array binding signal (z-score) [14]: -0.24
- glycan array binding signal (z-score) [15]: -0.079
- glycan array binding signal (z-score) [16]: -0.245
- glycan array binding signal (z-score) [17]: -0.138
- glycan array binding signal (z-score) [18]: -0.376
- glycan array binding signal (z-score) [19]: -0.152
- glycan array binding signal (z-score) [20]: -0.138
- glycan array binding signal (z-score) [21]: -0.242
- glycan array binding signal (z-score) [22]: -0.234
- glycan array binding signal (z-score) [23]: -0.153
- glycan array binding signal (z-score) [24]: -0.19
- glycan array binding signal (z-score) [25]: -0.24
- glycan array binding signal (z-score) [26]: -0.169
- glycan array binding signal (z-score) [27]: -0.146
- glycan array binding signal (z-score) [28]: -0.204
- glycan array binding signal (z-score) [29]: -0.205
- glycan array binding signal (z-score) (GlcNAc(b1-3)Fuc): -0.16
- glycan array binding signal (z-score) (GlcNAc(b1-3)Gal): -0.213
- glycan array binding signal (z-score) [30]: -0.1
